Measurements as given in ChEMBL document CHEMBL4888484, “Replenishing the malaria drug discovery pipeline: Screening and hit evaluation of the MMV Hit Generation Library 1 (HGL1) against asexual blood stage Plasmodium falciparum ,using a nano luciferase reporter read-out” (2022).
Screen size: about 150,000 compounds; about 540 (0.36%) showed an effect of 50% or more. Some of the results follow.

These molecules were tested on Plasmodium falciparum (assay: Primary screen in NF54 nanoGlo assay, in single point, at 2uM, 72h; a lower Z score goes with more inhibition). Conditions: timepoint 72 hour.
Format: functional, Erythrocyte
In the case of `O=C(NCc1ccc(-c2ccco2)nc1)C1CCOCC1`, the “% Inhibition” value is reported as -7% and the Z score is reported as 0.86. For `Cc1occc1C(=O)NCc1nc2ccccc2s1`, the “% Inhibition” value was -9% and the Z score was 1.05. In the case of `CC1CN(CC(C)(C)O)CCN1C(=O)NC1C2Cc3ccccc3C21` (configuration not stated), the “% Inhibition” value is reported as -10% and the Z score is reported as 1.23. `CC(C)CCN1CCC(N(Cc2cccnc2)C2CCOCC2)CC1` was tested, and the “% Inhibition” value was 4% and the Z score was -0.5. In the case of `COCCN(C)c1ncnc(N(C)C[C@H]2CCCO2)c1N`, the “% Inhibition” value is reported as 2% and the Z score is reported as -0.28. With `CC[C@H]1C=CCN1Cc1c(F)cc(OC)cc1F` the “% Inhibition” value was 5% and the Z score was -0.75. In the case of `CCc1nn(C)cc1NC(=O)N[C@@H](C)c1nccs1`, the “% Inhibition” value is reported as 1% and the Z score is reported as -0.15. With `O=C(c1cnc(-c2ccsc2)s1)N1CCCCCC1CC(O)c1cccs1` (configuration not stated) the “% Inhibition” value was -12% and the Z score was 1.97. With `O=C(c1cccnc1)N1C[C@H]2CC[C@@H](C1)N(C(=O)c1n[nH]c3ccccc13)C2` the “% Inhibition” value was 5% and the Z score was -0.46. `Cc1cccc(-c2nc(CN3C[C@H]4CC[C@H]3C4)c(C)o2)c1` was tested, and the “% Inhibition” value was -11% and the Z score was 1.03. `Cc1cc([C@H](C)NC(=O)c2cnccn2)c(C)s1` was tested, and the “% Inhibition” value was -4% and the Z score was 0.59. With `CC(Cc1cccs1)NC(=O)C1CCCO1` (configuration not stated) the “% Inhibition” value was -5% and the Z score was 0.85. For `OC1(C#CCN2CCCCC2)c2ccccc2C2CCCC21` (configuration not stated), the “% Inhibition” value was 27% and the Z score was -3.06. For `CC(C)(C)OC(=O)NCC=CCNc1ncc(F)cn1`, the “% Inhibition” value was -18% and the Z score was 3.38. In the case of `CCC(=O)N(CCC(c1ccccc1OC)C1CCOC(C)(C)C1)Cc1ccc(OC)cc1` (configuration not stated), the “% Inhibition” value is reported as -16% and the Z score is reported as 2.1. For `Cc1cnccc1CN1CCN(c2cc(=O)[nH]c(N)n2)CC1`, the “% Inhibition” value was -4% and the Z score was 0.77. With `Cc1cnc(C)c(N2CCC3(CC2)c2nc[nH]c2CCN3C(=O)C2CCC2)n1` the “% Inhibition” value was -14% and the Z score was 1.36. In the case of `O=C(Nc1cccc(Cl)c1)c1ccccc1C(=O)Nc1cccc(Cl)c1`, the “% Inhibition” value is reported as -12% and the Z score is reported as 1.64. `COCc1cccc(CC(=O)NC2CC(C)(C)C2)c1` was tested, and the “% Inhibition” value was 2% and the Z score was -0.25. For `COc1c(C(=O)N2CC3C4CCC(C4)C3C2)[nH]c(=O)[nH]c1=O` (configuration not stated), the “% Inhibition” value was -9% and the Z score was 1.28. For `CC(C)c1nc(CCc2cnn(C)c2)n(-c2cccc3cccnc23)n1`, the “% Inhibition” value was -5% and the Z score was 0.71. In the case of `Cc1nccn1CC1(CNC(=O)c2ccnc(-n3cnnc3)c2)CC1`, the “% Inhibition” value is reported as 0% and the Z score is reported as -0.06. `O=C(NCc1ccccc1F)c1nn(-c2ccccc2)c(=O)c2ccccc12` was tested, and the “% Inhibition” value was 5% and the Z score was -0.53. For `Cc1nc(NCCc2[nH]nc3c2CCCC3)c2nc(C)oc2n1`, the “% Inhibition” value was -6% and the Z score was 0.92. With `Cc1nccc(NC(=O)NCC2CC3C=CC2CC3)n1` (configuration not stated) the “% Inhibition” value was 5% and the Z score was -0.89. With `Cc1cccc(OCC(=O)N2CCN(c3cc(C)n4cnnc4n3)CC2)c1` the “% Inhibition” value was -3% and the Z score was 0.39. In the case of `CC1CCCN(C(=O)C2CS(=O)(=O)CC2C(F)(F)F)CC1` (configuration not stated), the “% Inhibition” value is reported as -5% and the Z score is reported as 0.83. In the case of `O=C(Nc1cnc(N2CCCCCC2)nc1)c1cccc(F)c1`, the “% Inhibition” value is reported as -22% and the Z score is reported as 1.93. In the case of `O=C(Nc1ccc2cc[nH]c2c1)N[C@H]1CCS(=O)(=O)C1`, the “% Inhibition” value is reported as 14% and the Z score is reported as -1.39. With `CC1=C(C(=O)N2CCCCC2)[C@H](c2ccncc2)n2ncnc2N1` the “% Inhibition” value was 31% and the Z score was -3.52. With `Cc1cc(C(=O)NCc2n[nH]c(=O)[nH]2)ccc1F` the “% Inhibition” value was -8% and the Z score was 1.33. For `COc1ccnc(N2CCN3C(=O)N(C4CCCCC4)C[C@H]3C2)n1`, the “% Inhibition” value was 15% and the Z score was -1.8. `Clc1cc(Cl)cc(OCCN2CCN(Cc3ncon3)CC2)c1` was tested, and the “% Inhibition” value was 33% and the Z score was -3.69. `C[C@H](NC(=O)C1(C#N)CCC1)c1cc2ccccc2o1` was tested, and the “% Inhibition” value was 5% and the Z score was -0.76. `CC(C)CCc1noc(Cn2nnc3ccccc3c2=O)n1` was tested, and the “% Inhibition” value was -14% and the Z score was 2.26. In the case of `O=C(CCC1CCN(C[C@@H]2CC=CCC2)CC1)N1CCc2ccccc2C1`, the “% Inhibition” value is reported as -5% and the Z score is reported as 0.64. In the case of `COCc1nc([C@@H]2CCCCCN2C(=O)c2ccc(N(C)C)nc2)no1`, the “% Inhibition” value is reported as -3% and the Z score is reported as 0.34. `CN(Cc1ccccc1)[C@H]1CCCN(C(=O)c2n[nH]c(=O)c3ccccc23)C1` was tested, and the “% Inhibition” value was 1% and the Z score was -0.08. With `O[C@@H]1C[C@@H](c2nc(Cc3ccccc3)no2)N(C2CCCCC2)C1` the “% Inhibition” value was 17% and the Z score was -1.94. `Cc1nc(CN(C)OCc2ccccc2)cs1` was tested, and the “% Inhibition” value was -6% and the Z score was 0.57. With `Cc1ccc(NC(=O)CN2C[C@@H]3CCS(=O)(=O)[C@@H]3C2)c(C)c1` the “% Inhibition” value was 6% and the Z score was -0.93. `CC(C)C1CN(C(=O)C2CC23CC3)CCCO1` (configuration not stated) was tested, and the “% Inhibition” value was 4% and the Z score was -0.49. In the case of `CC1=NN(C(=O)C(Cc2ccccc2)NC(=O)c2ccccc2)C(C)(O)C1` (configuration not stated), the “% Inhibition” value is reported as 10% and the Z score is reported as -1.43. With `Cc1ccc(CNC(=O)NC[C@H]2CCCO2)s1` the “% Inhibition” value was -14% and the Z score was 2.54. With `CC1(C)CC(NC2CCOC2)c2ccccc21` (configuration not stated) the “% Inhibition” value was -8% and the Z score was 1.18. For `Cc1cc(C)cc(N(C)S(=O)(=O)c2ccsc2-c2nc(-c3ccc(C(F)(F)F)cc3)no2)c1`, the “% Inhibition” value was -14% and the Z score was 2.01. For `Cn1cc(CCC(=O)NC[C@@H]2CCCN3CCCC[C@H]23)c2ccccc21`, the “% Inhibition” value was -6% and the Z score was 0.75. `O=C(CCc1cn[nH]c1)N1CCN(c2noc(C3CC3)n2)C[C@@H](O)C1` was tested, and the “% Inhibition” value was 1% and the Z score was -0.16. `O=C(CCN1CCC[C@H]1c1ccc[nH]1)NCc1ccccc1Cl` was tested, and the “% Inhibition” value was 4% and the Z score was -0.4. With `CCn1cc(NC(=O)C2CCN(c3ncnc4nc[nH]c34)CC2)cn1` the “% Inhibition” value was -2% and the Z score was 0.21. With `Cc1conc1CNc1ncnc2c1cnn2C(C)(C)C` the “% Inhibition” value was 35% and the Z score was -3.99. In the case of `Cc1ccc([C@H]2CCN(C(=O)NC3CCN(C4CC4)CC3)C2)c(C)c1`, the “% Inhibition” value is reported as 1% and the Z score is reported as -0.07. With `Cn1nccc1-c1cncc(CNC(=O)c2ccccc2)c1` the “% Inhibition” value was 12% and the Z score was -1.55. For `CC1CCC(C(=O)NC2CCN(C(=O)c3cc(-c4ccccc4)n[nH]3)CC2)CC1` (configuration not stated), the “% Inhibition” value was -10% and the Z score was 1.18. With `COc1ccc(Cl)cc1Cc1noc([C@H]2CCOC2)n1` the “% Inhibition” value was -4% and the Z score was 0.63. `Cc1cnc(NC(=O)CCNC(=O)C2CCCC2)s1` was tested, and the “% Inhibition” value was 3% and the Z score was -0.29.
